Data from paper PMC10997794, “Seeding the meiotic DNA break machinery and initiating recombination on chromosome axes” (Nature Communications, 2024).
No constants are given. Whether binding was seen depends on the method and setting. Some entries that bind do so weakly or less than the wild type. Sequences can lack the tags named with a protein.

Experiments:
Assay in all cases: two-hybrid; mouse proteins as bait and prey co-transformed into Y2HGold yeast; growth on -Leu -Trp -Ade -His plates for 2-7 days
[1] = biological target: T1, HORMAD1, yeast two-hybrid fusion (mouse) (UniProt Q9D5T7)
T1 sequence: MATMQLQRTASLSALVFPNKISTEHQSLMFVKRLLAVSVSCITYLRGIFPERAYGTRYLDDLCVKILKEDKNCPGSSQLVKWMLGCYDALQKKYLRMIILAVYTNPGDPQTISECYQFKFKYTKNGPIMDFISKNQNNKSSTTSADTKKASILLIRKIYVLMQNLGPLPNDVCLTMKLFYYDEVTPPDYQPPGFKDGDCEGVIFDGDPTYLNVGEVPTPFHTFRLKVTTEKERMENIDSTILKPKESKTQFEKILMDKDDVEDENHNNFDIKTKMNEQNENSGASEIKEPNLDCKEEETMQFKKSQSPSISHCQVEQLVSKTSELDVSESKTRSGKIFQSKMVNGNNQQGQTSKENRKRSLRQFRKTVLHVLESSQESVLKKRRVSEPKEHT

[2] = biological target: T2, MEI1, yeast two-hybrid fusion (mouse) (UniProt Q9D4I2)
T2 sequence: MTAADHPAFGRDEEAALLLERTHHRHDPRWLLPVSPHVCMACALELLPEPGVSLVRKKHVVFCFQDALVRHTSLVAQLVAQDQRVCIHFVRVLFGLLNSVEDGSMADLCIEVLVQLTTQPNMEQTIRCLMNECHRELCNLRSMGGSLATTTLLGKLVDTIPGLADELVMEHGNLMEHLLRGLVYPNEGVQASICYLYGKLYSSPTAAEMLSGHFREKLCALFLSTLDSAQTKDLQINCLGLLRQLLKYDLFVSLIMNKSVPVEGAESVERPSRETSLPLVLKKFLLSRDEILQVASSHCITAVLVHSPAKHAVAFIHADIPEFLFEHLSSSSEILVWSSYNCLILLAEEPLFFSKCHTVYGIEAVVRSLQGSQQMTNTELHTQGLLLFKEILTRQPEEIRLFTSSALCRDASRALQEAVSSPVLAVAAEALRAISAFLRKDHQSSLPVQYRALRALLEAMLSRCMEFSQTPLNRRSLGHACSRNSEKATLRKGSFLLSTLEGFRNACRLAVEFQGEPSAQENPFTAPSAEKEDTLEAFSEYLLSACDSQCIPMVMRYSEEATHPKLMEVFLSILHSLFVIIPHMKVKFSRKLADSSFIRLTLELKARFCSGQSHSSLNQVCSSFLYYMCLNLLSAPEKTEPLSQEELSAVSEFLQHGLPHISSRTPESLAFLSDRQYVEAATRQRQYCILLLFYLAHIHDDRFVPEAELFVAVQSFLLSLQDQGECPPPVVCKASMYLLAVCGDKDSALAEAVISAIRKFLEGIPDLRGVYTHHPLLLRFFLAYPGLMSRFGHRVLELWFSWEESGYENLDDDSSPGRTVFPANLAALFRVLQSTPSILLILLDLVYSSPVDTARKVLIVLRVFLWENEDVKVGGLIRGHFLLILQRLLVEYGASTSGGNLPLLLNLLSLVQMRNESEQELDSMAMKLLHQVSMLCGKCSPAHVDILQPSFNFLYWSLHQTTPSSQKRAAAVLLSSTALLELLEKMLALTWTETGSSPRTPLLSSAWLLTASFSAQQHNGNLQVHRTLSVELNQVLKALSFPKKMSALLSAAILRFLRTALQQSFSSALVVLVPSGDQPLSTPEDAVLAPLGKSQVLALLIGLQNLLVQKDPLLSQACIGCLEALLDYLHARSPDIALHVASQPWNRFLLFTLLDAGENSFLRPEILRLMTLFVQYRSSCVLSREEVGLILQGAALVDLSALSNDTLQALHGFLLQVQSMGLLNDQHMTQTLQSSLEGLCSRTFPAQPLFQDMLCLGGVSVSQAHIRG

[3] = biological target: T3, DBF4, yeast two-hybrid fusion (mouse) (UniProt Q9QZ41)
T3 sequence: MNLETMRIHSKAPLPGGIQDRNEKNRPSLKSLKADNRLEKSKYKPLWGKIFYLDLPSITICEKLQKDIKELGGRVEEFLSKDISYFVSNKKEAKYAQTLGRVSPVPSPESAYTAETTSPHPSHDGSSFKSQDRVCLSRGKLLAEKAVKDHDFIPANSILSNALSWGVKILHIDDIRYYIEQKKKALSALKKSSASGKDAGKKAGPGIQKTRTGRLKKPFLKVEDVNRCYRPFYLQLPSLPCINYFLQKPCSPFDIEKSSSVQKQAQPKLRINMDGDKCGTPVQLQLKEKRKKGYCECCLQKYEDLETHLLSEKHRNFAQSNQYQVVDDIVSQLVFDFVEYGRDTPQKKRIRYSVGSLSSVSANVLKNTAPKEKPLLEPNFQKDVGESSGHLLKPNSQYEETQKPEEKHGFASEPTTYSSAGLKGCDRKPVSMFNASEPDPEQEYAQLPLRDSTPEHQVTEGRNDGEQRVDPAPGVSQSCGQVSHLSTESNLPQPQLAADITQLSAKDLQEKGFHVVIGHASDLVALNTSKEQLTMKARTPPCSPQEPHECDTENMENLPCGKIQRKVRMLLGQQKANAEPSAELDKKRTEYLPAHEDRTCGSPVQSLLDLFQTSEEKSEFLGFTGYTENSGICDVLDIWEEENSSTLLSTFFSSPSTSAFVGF

[4] = biological target: T4, REC114, yeast two-hybrid fusion (mouse) (UniProt Q9CWH4)
T4 sequence: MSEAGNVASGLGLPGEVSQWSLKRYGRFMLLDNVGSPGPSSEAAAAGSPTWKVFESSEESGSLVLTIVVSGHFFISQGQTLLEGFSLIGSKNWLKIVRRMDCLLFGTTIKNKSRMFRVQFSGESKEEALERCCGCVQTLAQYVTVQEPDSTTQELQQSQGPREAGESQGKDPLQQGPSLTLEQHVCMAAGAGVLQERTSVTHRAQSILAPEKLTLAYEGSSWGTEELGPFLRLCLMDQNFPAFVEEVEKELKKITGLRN

[5] = biological target: T5, IHO1, wild type (1-574), yeast two-hybrid fusion (mouse) (UniProt Q6PDM4)
T5 sequence: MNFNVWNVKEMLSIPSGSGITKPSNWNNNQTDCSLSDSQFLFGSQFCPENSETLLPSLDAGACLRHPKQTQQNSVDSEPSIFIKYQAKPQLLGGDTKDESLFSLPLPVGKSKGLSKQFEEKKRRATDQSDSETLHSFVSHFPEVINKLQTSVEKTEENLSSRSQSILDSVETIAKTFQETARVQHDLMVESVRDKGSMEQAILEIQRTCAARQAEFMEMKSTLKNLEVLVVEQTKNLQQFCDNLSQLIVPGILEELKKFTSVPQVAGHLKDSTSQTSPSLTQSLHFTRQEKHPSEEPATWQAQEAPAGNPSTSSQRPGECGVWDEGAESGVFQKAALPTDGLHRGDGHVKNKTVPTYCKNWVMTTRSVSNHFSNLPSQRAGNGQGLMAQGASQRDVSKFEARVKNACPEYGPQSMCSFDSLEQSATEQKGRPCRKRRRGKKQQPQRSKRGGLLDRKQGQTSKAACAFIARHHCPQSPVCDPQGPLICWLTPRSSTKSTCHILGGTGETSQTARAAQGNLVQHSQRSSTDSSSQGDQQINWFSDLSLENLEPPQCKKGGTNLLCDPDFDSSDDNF

[6] = biological target: ANKRD31, yeast two-hybrid fusion (mouse)

- binding [1]: no binding
- binding [2]: binds
- binding [3]: binds
- binding [4]: binds
- binding [5]: binds
- binding [6]: binds
B1: IHO1_C7Δ (IHO1 without its last 7 amino acids), yeast two-hybrid fusion (domain or fragment, UniProt Q6PDM4 1-567)
chain: MNFNVWNVKEMLSIPSGSGITKPSNWNNNQTDCSLSDSQFLFGSQFCPENSETLLPSLDAGACLRHPKQTQQNSVDSEPSIFIKYQAKPQLLGGDTKDESLFSLPLPVGKSKGLSKQFEEKKRRATDQSDSETLHSFVSHFPEVINKLQTSVEKTEENLSSRSQSILDSVETIAKTFQETARVQHDLMVESVRDKGSMEQAILEIQRTCAARQAEFMEMKSTLKNLEVLVVEQTKNLQQFCDNLSQLIVPGILEELKKFTSVPQVAGHLKDSTSQTSPSLTQSLHFTRQEKHPSEEPATWQAQEAPAGNPSTSSQRPGECGVWDEGAESGVFQKAALPTDGLHRGDGHVKNKTVPTYCKNWVMTTRSVSNHFSNLPSQRAGNGQGLMAQGASQRDVSKFEARVKNACPEYGPQSMCSFDSLEQSATEQKGRPCRKRRRGKKQQPQRSKRGGLLDRKQGQTSKAACAFIARHHCPQSPVCDPQGPLICWLTPRSSTKSTCHILGGTGETSQTARAAQGNLVQHSQRSSTDSSSQGDQQINWFSDLSLENLEPPQCKKGGTNLLCDPDF
